Data published in PubChem BioAssay AID743279 (National Center for Advancing Translational Sciences (NCATS), 2014).
The campaign covered roughly 360,000 compounds. About 17,000 (4.7%) were called active. The inconclusive results got no clear call from the source; some entries with a clear call stand among them for comparison. No stated cut-off is given here; in the data, active means activity change below about -50%; inconclusive means mostly about -30% to -49%; inactive means weaker than that.

Test: qHTS for Inhibitors of Inflammasome Signaling: IL-1-beta AlphaLISA Primary Screen
Conditions: THP-1 LPS/ATP IL-1B secretion, 16 h; at 57.5 µM, hits give low values
Procedure, shortened: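 Secreted IL-1B measured by AlphaLISA bead assay after 16 h compound exposure of THP-1 cells; compounds (final up to 57.5 uM) added 1 h before LPS (250 ng/mL) and ATP (1.25 mM) stimulation; lower signal means less secretion.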
On the % scale 0 is the no-effect control and ±100 the full control effect.

| Compound | activity change |
| --- | --- |
| O=C(N/N=C/c1ccc(O)cc1)c1cc(-c2ccc3c(c2)OCO3)n[nH]1 | inconclusive: -30.1% |
| COc1ccc(-c2c[n+]3c4n2CCCCC4=C(c2ccccc2)C3)cc1 | inconclusive: -38.7% |
| CCCCN(CCCC)CCNC(=O)CN1C(=O)CSc2ccc(S(=O)(=O)N3CCOCC3)cc21 | inactive: -18.3% |
| CCOc1ccc(NS(=O)(=O)c2cc(NC(=O)c3cccc(C)c3)ccc2Cl)cc1 | inconclusive: -46.7% |
| CCOC(=O)c1sc2nc(CSc3ccccc3Cl)[nH]c(=O)c2c1C | inactive: 0% |
| COc1ccccc1C(=O)NCCC(=O)Nc1ccc(S(=O)(=O)N2CC(C)CC(C)C2)cc1 (configuration not stated) | inconclusive: -38.3% |
| Cc1ccc(C(=O)c2ccccc2C(=O)OCC(=O)N2C(C)CCCC2C)cc1 (configuration not stated) | inconclusive: -30.8% |
| COc1ccc(C(=O)N(Cc2ccco2)Cc2cc3cc(C)ccc3[nH]c2=O)cc1OC | inconclusive: -30.5% |
| Cc1ccc(C(=O)CCNc2ccc(Cl)cc2)o1 | inconclusive: -35.8% |
| Cc1c(Cc2ccccc2)c(=O)oc2cc(OCC(=O)NCc3ccccn3)ccc12 | active: -51.6% |
| COc1ccc2oc(C(=O)OCC(=O)N(C)Cc3ccccc3)c(C)c2c1 | inconclusive: -34.5% |
| CC(=O)Nc1c(C#N)c(C(C)(C)C)cn1C | inactive: 0% |
| CCC(C)c1ccccc1NC(=O)CN(C)CCOc1ccc(Cl)cc1 (configuration not stated) | active: -77.5% |
| COc1ccc(NC(=O)CC(c2ccco2)C(C)C)cc1 (configuration not stated) | inactive: 7.49% |
| CCOc1cc(CN2CCC(N3CCC(C(=O)NC4CC4)CC3)CC2)ccc1O | inconclusive: -45.2% |
| CC(C)CN(C(=O)COC(=O)c1ccc([N+](=O)[O-])s1)c1c(N)n(Cc2ccccc2)c(=O)[nH]c1=O | inactive: 8.57% |
| CN1CCN(c2ccc(Cl)cc2NC(=O)c2ccc(S(=O)(=O)N(C)C)cc2)CC1 | inconclusive: -37.1% |
| Cc1ccc(-c2nnn(CC(=O)N(c3ccccc3F)C(C(=O)NCC3CCCO3)c3c[nH]c4ccccc34)n2)cc1 (configuration not stated) | inconclusive: -30.3% |
| CCCN(CCC)CCCNC(=O)c1cc2cc3ccc(OC)cc3nc2o1 | active: -77.7% |
| CC1CCc2c(sc(NC(=O)c3ccc(N4C(=O)CCC4=O)cc3)c2C(N)=O)C1 (configuration not stated) | inactive: -26.9% |
| COc1ccc(C(CNC(=O)COc2ccc(F)cc2Br)N2CCCC2)cc1 (configuration not stated) | active: -54.3% |

| Compound | activity change |
| --- | --- |
| Cc1cc(N2CCN(C(=O)c3ccco3)CC2)n2nc(C)c(-c3ccccc3)c2n1 | inconclusive: -30% |
| Oc1ccc(Nc2nc(NCC3CCCO3)c3ccccc3n2)cc1 (configuration not stated) | active: -96% |
| CCOC(=O)C1=C(C)C2C3C(=O)N(c4ccc(C)cc4C)C(=O)C3C1(C)C1C(=O)N(c3ccc(C)cc3C)C(=O)C21 (configuration not stated) | inactive: -13.3% |
| C=Cc1ccc(Cn2c(=O)n(CCCOC)c(=O)c3sccc32)cc1 | active: -88% |
| CC(C)(C)OC(=O)NCCCCCO | inactive: 2.35% |
| CCN1C(=O)[C@H]2[C@@H](c3ccc(-c4cccc(Cl)c4)cc3)N[C@@](CC(C)C)(C(=O)OC)[C@H]2C1=O | inactive: -27.5% |
| COCCOc1ccc(C(F)(F)F)cc1NC(=O)CN1C(=O)NC(C)(c2ccc3c(c2)OCO3)C1=O (configuration not stated) | inactive: -12.6% |
| Cc1nc(CN2CCN(S(=O)(=O)c3c(Cl)cc(Br)cc3Cl)CC2)cs1 | active: -52.8% |
| CC1(Cc2cc(Cl)ccc2C(F)(F)F)C(=O)Nc2cc(-c3ccccc3Cl)ccc21 (configuration not stated) | inactive: -8.99% |
| Cn1c2ccccc2c(=O)c2ccc(F)cc21 | active: -50.6% |
| O=[N+]([O-])c1cccc(OCCCN2CCC(Cc3ccccc3)CC2)c1 | active: -73.4% |
| COc1ccc(NC(=O)c2ccc(NCCCN3CCOCC3)c([N+](=O)[O-])c2)cc1 | inconclusive: -32.6% |
| Cc1c(C(=O)OCC(=O)c2ccc3c(c2)OCCO3)oc2ccccc12 | inconclusive: -42.2% |
| CCOc1ccc(C(=O)Nc2nncs2)cc1OCC | inconclusive: -48.6% |
| COc1ccc(C(Cl)=C(C=O)c2ccc(OC)c(OC)c2)cc1OC | inconclusive: -47.5% |
| O=C(COC(=O)Cc1c(F)cccc1Cl)NC(=O)Nc1ccccc1F | inactive: 22% |
| Cc1cccc(OCc2nnc(SCC(=O)O)n2Cc2ccccc2)c1 | inactive: 0.655% |
| O=C(COc1ccc(S(=O)(=O)N2CCOCC2)cc1)NC1CCCCC1 | inactive: 22.7% |
| Cn1c(=O)c2cn(-c3ccccc3)cc2n(C)c1=O | inconclusive: -30.1% |
| CCN1CCN(c2nc(-c3ccccc3)c3ccccc3n2)CC1 | inconclusive: -46.9% |
| Cc1ccc(NC2=C/C(=N/S(=O)(=O)c3cccs3)c3ccccc3C2=O)cc1 | active: -88.9% |
